The other results are listed elsewhere or left out. At the low end of the ranking the order means little.

For this assay, the target named is SIX1-Q177R homeodomain (UniProt Q15475). Nature of the assay: universal protein binding microarray. Particulars: Universal all-10-mer PBM (8x60K, AMADID 030236), 300 nM GST-tagged protein, Alexa Fluor 488 anti-GST; buffer, salt, pH and temperature not stated; high values mean tight binding; most listed sequences are background and not binding sites; double strand, one strand shown.
Turning to CTTGTAAC, the binding signal was 0.0801 E-score.
To CGTCGACC belongs 0.0576 E-score; to AGTTCTTA, -0.278 E-score.
The same measure for GCGAGGCC: -0.16 E-score; for GGGCTGAC: 0.0141 E-score; for AGACTTTA: -0.209 E-score.
To GATCACAC belongs 0.324 E-score; to TATGCTGA, -0.237 E-score; to AAAAGAGA, -0.157 E-score.
On to GTCAGTTA, for which the binding signal stood at 0.0151 E-score.
Consider CCGAAATA, for which the binding signal was -0.0825 E-score.
Regarding GCGTCACA, the binding signal stood at 0.0925 E-score.
To ACTAGGTC belongs -0.096 E-score.
On to TGTTAAAA, for which the binding signal came to 0.129 E-score.
To GTGTGTGA belongs 0.229 E-score; to ATCAATAG, -0.0116 E-score.
As for CAGAATTC, the binding signal was -0.228 E-score.
The same measure for CTCTTGAC: 0.0339 E-score.
The same measure for CTTTCCTA: -0.258 E-score; for ACTAGGAA: -0.0656 E-score.
To AGCTGAGC belongs -0.0541 E-score; to AGCAATAC, -0.0178 E-score.
Turning to AGAGGCAC, the binding signal is -0.00975 E-score.
The same measure for AAGTTCCT: -0.213 E-score.
To GAATCCCC belongs 0.0877 E-score; to ATTAGCGC, -0.0939 E-score.
Regarding AGTATATG, the binding signal amounted to 0.00625 E-score.
The same measure for CCACGAGC: 0.00088 E-score; for CACGCAGC: 0.241 E-score.
The same measure for AGTAAGAA: -0.164 E-score; for TCAGGGAA: -0.0904 E-score; for AGGCCGAT: -0.0773 E-score.
The same measure for CTATCGAA: 0.0406 E-score; for AACCATCC: -0.0661 E-score; for GAGGGTTA: 0.185 E-score.
For AATCTTAC, the binding signal was -0.111 E-score.
As to ATCTTCCG, the binding signal was -0.0845 E-score.
As for AATGATGA, the binding signal is -0.224 E-score.
Turning to GAAGTAAA, the binding signal was -0.263 E-score.
The same measure for CCCTCATA: 0.0592 E-score.
The same measure for CTCAGAGA: 0.00128 E-score.
Consider ACGTGCGC, for which the binding signal was -0.0827 E-score.
For the sequence CAATGACG, the binding signal amounted to 0.0239 E-score.
The same measure for GACGTACC: -0.0822 E-score; for CGCGTCGC: 0.0318 E-score.
To GCAGTTCC belongs -0.201 E-score.
The same measure for CACGGCTA: 0.182 E-score; for CACAGGAA: 0.0158 E-score.
In the case of AGCGAGAC, the binding signal was -0.139 E-score.
For the sequence ATCTCCGC, the binding signal was -0.024 E-score.
In the case of CGTTCGAC, the binding signal was -0.0176 E-score.
AAACCATC: the binding signal stood at 0.0425 E-score.
To GTCACGGA belongs -0.00507 E-score; to CACTGATG, 0.106 E-score.
The same measure for CACGACGG: 0.182 E-score; for GGGTAGAA: 0.105 E-score.
Turning to ACCACTGG, the binding signal was found to be 0.153 E-score.
Turning to CAGTAGGA, the binding signal is -0.186 E-score.
As for ACCTAAAC, the binding signal came to 0.0688 E-score.
In the case of TATCGCCA, the binding signal was -0.0468 E-score.
On to GGTAACCA, for which the binding signal turned out to be 0.102 E-score.
To ACGGTGCA belongs 0.293 E-score.
To ATAGATAC belongs -0.0538 E-score.
On to GTACGGGA, for which the binding signal came to 0.07 E-score.
The same measure for CGAAGGCG: -0.103 E-score; for GGTGCCAC: 0.195 E-score.
Regarding CTGATCAC, the binding signal is 0.0105 E-score.
To ATACCATC belongs 0.151 E-score; to ACCAAGAA, -0.0663 E-score; to CTAAGAAG, -0.00205 E-score.
As for TACACTGA, the binding signal stood at 0.394 E-score.
To ACGATCGC belongs -0.182 E-score; to CGCGAAGC, -0.0589 E-score; to CAGTTGGC, 0.0791 E-score.
Turning to CCAAGTGC, the binding signal was -0.104 E-score.
The same measure for ATAATGAT: -0.0811 E-score; for AAAGCATG: -0.0841 E-score.
For ATTGGGGC, the binding signal was -0.0863 E-score.
To CACCGGCC belongs 0.251 E-score; to AGCTTCCG, -0.242 E-score; to AGAAGCAT, -0.167 E-score.
The same measure for AATCAGCA: -0.103 E-score; for GCTTTCGA: -0.142 E-score.
Regarding AGCTGGAG, the binding signal was determined as 0.0257 E-score.
As to CCCTAGCC, the binding signal turned out to be 0.0717 E-score.
On to AATATGCA, for which the binding signal is -0.111 E-score.
Regarding TAGAACCA, the binding signal was -0.212 E-score.
Turning to ATTGCTCG, the binding signal was -0.232 E-score.
To GCAGTAAA belongs -0.206 E-score.
The same measure for GGATACAC: 0.424 E-score; for CCGATGGA: -0.117 E-score.
To GATGCTAC belongs -0.0375 E-score; to CAATGAAG, -0.153 E-score.
AATTTGTC: the binding signal is -0.171 E-score.

Values taken from publication PMC10668032.
